{"source": "patent US20250333542A1", "about": "(Hoffmann-La Roche, published 2025)", "binders": {"B1": {"name": "P1AF9485 (anti-FAP 4B9 IgG-IFNG, C-terminus AKTGKRERP) (other)", "heavy": "EVQLLESGGGLVQPGGSLRLSCAASGFTFSSYAMSWVRQAPGKGLEWVSAIIGSGASTYYADSVKGRFTISRDNSKNTLYLQMNSLRAEDTAVYYCAKGWFGGFNYWGQGTLVTVSSASTKGPSVFPLAPSSKSTSGGTAALGCLVKDYFPEPVTVSWNSGALTSGVHTFPAVLQSSGLYSLSSVVTVPSSSLGTQTYICNVNHKPSNTKVDKKV[human IgG1 Fc with changes skipped]GGGGSGGGGSGGGGSQDPYVKEAENLKKYFNAGHSDVADNGTLFLGILKNWKEESDRKIMQSQIVSFYFKLFKNFKDDQSIQKSVETIKEDMNVKFFNSNKKKRDDFEKLTNYSVTDLNVQRKAIHELIQVMAELSPAAKTGKRERP", "light": "EIVLTQSPGTLSLSPGERATLSCRASQSVTSSYLAWYQQKPGQAPRLLINVGSRRATGIPDRFSGSGSGTDFTLTISRLEPEDFAVYYCQQGIMLPPTFGQGTKVEIKRTVAAPSVFIFPPSDEQLKSGTASVVCLLNNFYPREAKVQWKVDNALQSGNSQESVTEQDSKDSTYSLSSTLTLSKADYEKHKVYACEVTHQGLSSPVTKSFNRGEC", "notes": "Antibody-cytokine fusion, IgG1 P329G LALA, (G4S)3 linker; E in position 3 of KRKR"}, "B2": {"name": "P1AF9486 (anti-FAP 4B9 IgG-IFNG, C-terminus AKTGKRKEP) (other)", "heavy": "EVQLLESGGGLVQPGGSLRLSCAASGFTFSSYAMSWVRQAPGKGLEWVSAIIGSGASTYYADSVKGRFTISRDNSKNTLYLQMNSLRAEDTAVYYCAKGWFGGFNYWGQGTLVTVSSASTKGPSVFPLAPSSKSTSGGTAALGCLVKDYFPEPVTVSWNSGALTSGVHTFPAVLQSSGLYSLSSVVTVPSSSLGTQTYICNVNHKPSNTKVDKKV[human IgG1 Fc with changes skipped]GGGGSGGGGSGGGGSQDPYVKEAENLKKYFNAGHSDVADNGTLFLGILKNWKEESDRKIMQSQIVSFYFKLFKNFKDDQSIQKSVETIKEDMNVKFFNSNKKKRDDFEKLTNYSVTDLNVQRKAIHELIQVMAELSPAAKTGKRKEP", "light": "B1 light", "notes": "Antibody-cytokine fusion, IgG1 P329G LALA, (G4S)3 linker; E in position 4 of KRKR"}, "B3": {"name": "P1AF9487 (anti-FAP 4B9 IgG-IFNG, C-terminus AKTGEEKRP) (other)", "heavy": "EVQLLESGGGLVQPGGSLRLSCAASGFTFSSYAMSWVRQAPGKGLEWVSAIIGSGASTYYADSVKGRFTISRDNSKNTLYLQMNSLRAEDTAVYYCAKGWFGGFNYWGQGTLVTVSSASTKGPSVFPLAPSSKSTSGGTAALGCLVKDYFPEPVTVSWNSGALTSGVHTFPAVLQSSGLYSLSSVVTVPSSSLGTQTYICNVNHKPSNTKVDKKV[human IgG1 Fc with changes skipped]GGGGSGGGGSGGGGSQDPYVKEAENLKKYFNAGHSDVADNGTLFLGILKNWKEESDRKIMQSQIVSFYFKLFKNFKDDQSIQKSVETIKEDMNVKFFNSNKKKRDDFEKLTNYSVTDLNVQRKAIHELIQVMAELSPAAKTGEEKRP", "light": "B1 light", "notes": "Antibody-cytokine fusion, IgG1 P329G LALA, (G4S)3 linker; E in positions 1 and 2 of KRKR"}, "B4": {"name": "P1AF9488 (anti-FAP 4B9 IgG-IFNG, C-terminus AKTGKREEP) (other)", "heavy": "EVQLLESGGGLVQPGGSLRLSCAASGFTFSSYAMSWVRQAPGKGLEWVSAIIGSGASTYYADSVKGRFTISRDNSKNTLYLQMNSLRAEDTAVYYCAKGWFGGFNYWGQGTLVTVSSASTKGPSVFPLAPSSKSTSGGTAALGCLVKDYFPEPVTVSWNSGALTSGVHTFPAVLQSSGLYSLSSVVTVPSSSLGTQTYICNVNHKPSNTKVDKKV[human IgG1 Fc with changes skipped]GGGGSGGGGSGGGGSQDPYVKEAENLKKYFNAGHSDVADNGTLFLGILKNWKEESDRKIMQSQIVSFYFKLFKNFKDDQSIQKSVETIKEDMNVKFFNSNKKKRDDFEKLTNYSVTDLNVQRKAIHELIQVMAELSPAAKTGKREEP", "light": "B1 light", "notes": "Antibody-cytokine fusion, IgG1 P329G LALA, (G4S)3 linker; E in positions 3 and 4 of KRKR"}, "B5": {"name": "P1AF9489 (anti-FAP 4B9 IgG-IFNG, C-terminus AKTGERERP) (other)", "heavy": "EVQLLESGGGLVQPGGSLRLSCAASGFTFSSYAMSWVRQAPGKGLEWVSAIIGSGASTYYADSVKGRFTISRDNSKNTLYLQMNSLRAEDTAVYYCAKGWFGGFNYWGQGTLVTVSSASTKGPSVFPLAPSSKSTSGGTAALGCLVKDYFPEPVTVSWNSGALTSGVHTFPAVLQSSGLYSLSSVVTVPSSSLGTQTYICNVNHKPSNTKVDKKV[human IgG1 Fc with changes skipped]GGGGSGGGGSGGGGSQDPYVKEAENLKKYFNAGHSDVADNGTLFLGILKNWKEESDRKIMQSQIVSFYFKLFKNFKDDQSIQKSVETIKEDMNVKFFNSNKKKRDDFEKLTNYSVTDLNVQRKAIHELIQVMAELSPAAKTGERERP", "light": "B1 light", "notes": "Antibody-cytokine fusion, IgG1 P329G LALA, (G4S)3 linker; E in positions 1 and 3 of KRKR"}, "B6": {"name": "P1AF9490 (anti-FAP 4B9 IgG-IFNG, C-terminus AKTGKEKEP) (other)", "heavy": "EVQLLESGGGLVQPGGSLRLSCAASGFTFSSYAMSWVRQAPGKGLEWVSAIIGSGASTYYADSVKGRFTISRDNSKNTLYLQMNSLRAEDTAVYYCAKGWFGGFNYWGQGTLVTVSSASTKGPSVFPLAPSSKSTSGGTAALGCLVKDYFPEPVTVSWNSGALTSGVHTFPAVLQSSGLYSLSSVVTVPSSSLGTQTYICNVNHKPSNTKVDKKV[human IgG1 Fc with changes skipped]GGGGSGGGGSGGGGSQDPYVKEAENLKKYFNAGHSDVADNGTLFLGILKNWKEESDRKIMQSQIVSFYFKLFKNFKDDQSIQKSVETIKEDMNVKFFNSNKKKRDDFEKLTNYSVTDLNVQRKAIHELIQVMAELSPAAKTGKEKEP", "light": "B1 light", "notes": "Antibody-cytokine fusion, IgG1 P329G LALA, (G4S)3 linker; E in positions 2 and 4 of KRKR"}, "B7": {"name": "P1AG1310 (FAP 4B9 IgG - linker 1 - IFNG KRKRP, unmasked) (other)", "heavy": "EVQLLESGGGLVQPGGSLRLSCAASGFTFSSYAMSWVRQAPGKGLEWVSAIIGSGASTYYADSVKGRFTISRDNSKNTLYLQMNSLRAEDTAVYYCAKGWFGGFNYWGQGTLVTVSSASTKGPSVFPLAPSSKSTSGGTAALGCLVKDYFPEPVTVSWNSGALTSGVHTFPAVLQSSGLYSLSSVVTVPSSSLGTQTYICNVNHKPSNTKVDKKV[human IgG1 Fc with changes skipped]GGGGSGGGGSGGGGSGGGGSGGGGSGGGGGQDPYVKEAENLKKYFNAGHSDVADNGTLFLGILKNWKEESDRKIMQSQIVSFYFKLFKNFKDDQSIQKSVETIKEDMNVKFFNSNKKKRDDFEKLTNYSVTDLNVQRKAIHELIQVMAELSPAAKTGKRKRP", "light": "B1 light"}}}
{"molecular_target": "T1, Fc (kih)-IFNGR1/2 heterodimer (P1AF8126) (UniProt P15260 18-245; P38484 28-247, limits assumed)", "T1 construct": "Used as the soluble analyte in SPR; also called Fc (kih)-IFNGR1/R2 heterodimer; IFNGR1/R2; not shown: Fc (kih) chain", "T1 sequence (looked up) 1": "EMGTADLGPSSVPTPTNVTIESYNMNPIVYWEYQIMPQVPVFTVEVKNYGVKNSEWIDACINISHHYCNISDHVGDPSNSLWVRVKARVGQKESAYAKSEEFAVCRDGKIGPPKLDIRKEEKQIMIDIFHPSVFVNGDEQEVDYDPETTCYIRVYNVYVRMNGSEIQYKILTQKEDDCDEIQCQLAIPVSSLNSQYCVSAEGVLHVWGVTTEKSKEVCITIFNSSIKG", "T1 sequence (looked up) 2": "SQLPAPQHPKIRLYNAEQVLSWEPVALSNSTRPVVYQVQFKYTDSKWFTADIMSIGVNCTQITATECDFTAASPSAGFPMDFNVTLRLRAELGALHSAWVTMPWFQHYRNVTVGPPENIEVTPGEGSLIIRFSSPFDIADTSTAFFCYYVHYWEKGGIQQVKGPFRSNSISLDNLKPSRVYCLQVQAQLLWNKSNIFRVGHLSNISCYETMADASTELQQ", "assay": "SPR, compound immobilised, Fc(kih)-IFNGR1/2 heterodimer as analyte; apparent affinity", "experimental": "(§1) The binding behaviour of IFNG variants towards IFNGR1 and IFNGR1/2 was assessed by surface plasmon resonance (SPR). SPR experiments were performed on a Biacore 8K device at 25° C. with HBS-EP as running buffer (0.01 M HEPES pH 7.4, 0.15 M NaCl, 3 mM EDTA, 0.005% Surfactant P20, Biacore, Freiburg/Germany). […] IFNG mutation series compounds were immobilised at a concentration of 25 nM, 80 s contact time and 10 μL/min. Immobilisation levels up to 450 resonance units (RU) were used. Subsequently, decreasing concentrations (800-3.13 nM) of Fc (kih)-IFNGR1 monomer or Fc (kih)-IFNGR1/2 heterodimer were injected as a second analyte with a flow rate of 30 μL/min over 120 seconds and dissociation was monitored for 500 s. Bulk refractive index differences were corrected for by subtracting the response obtained in a reference flow cell, where no protein was immobilised. The affinity constants were derived from the rate constants by fitting to a 1:1 Langmuir binding.\n(§2) To measure binding affinities, compounds of the mutation series were immobilised in the flow cell. As a second analyte Fc (kih)-IFNGR1 monomer or Fc (kih)-IFNGR1/R2 heterodimer were passed through the flow cell and binding affinities (KD) were calculated based on observed association and dissociation constants. Already single point mutations reduced the apparent binding affinities towards the receptors compared to the compound with C-terminal KRKRP.", "units": {"Kd": "nM"}}
{"binder": "B1", "Kd": 608}
{"binder": "B2", "Kd": 598}
{"binder": "B3", "Kd": 1750}
{"binder": "B4", "Kd": 2870}
{"binder": "B5", "Kd": 5960}
{"binder": "B6", "Kd": 4750}
{"binder": "B7", "Kd": 167}
{"molecular_target": "T2, Fc (kih)-IFNGR1 monomer (P1AF7104) (UniProt P15260 18-245)", "T2 construct": "Used as the soluble analyte in SPR; not shown: Fc (kih) part", "T2 sequence (P15260 whole entry, species assumed, looked up)": "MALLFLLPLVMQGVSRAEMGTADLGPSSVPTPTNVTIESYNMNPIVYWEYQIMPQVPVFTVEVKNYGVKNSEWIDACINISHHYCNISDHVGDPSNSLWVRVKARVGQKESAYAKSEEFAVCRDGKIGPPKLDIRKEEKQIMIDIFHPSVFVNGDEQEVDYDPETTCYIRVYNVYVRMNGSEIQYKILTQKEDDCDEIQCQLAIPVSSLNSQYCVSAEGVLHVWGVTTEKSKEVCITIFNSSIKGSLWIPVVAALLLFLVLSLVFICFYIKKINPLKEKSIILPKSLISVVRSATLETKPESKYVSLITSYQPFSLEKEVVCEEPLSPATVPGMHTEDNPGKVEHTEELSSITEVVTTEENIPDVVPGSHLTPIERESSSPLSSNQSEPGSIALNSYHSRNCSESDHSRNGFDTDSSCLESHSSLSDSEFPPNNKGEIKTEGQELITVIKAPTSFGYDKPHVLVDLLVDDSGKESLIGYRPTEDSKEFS", "assay": "SPR, compound immobilised, Fc(kih)-IFNGR1 monomer as analyte; apparent affinity", "experimental": "as §1, §2", "units": {"Kd": "nM"}}
{"binder": "B1", "Kd": 1200}
{"binder": "B2", "Kd": 1370}
{"binder": "B4", "Kd": 6220}
{"binder": "B5", "Kd": 10700}
{"binder": "B6", "Kd": 216000}
{"binder": "B7", "Kd": 475}
